In patent US20110269834A1 (priority 2008, published 2011):

Biological target: NL63-CoV papain-like protease 2 (PLP2) (Human coronavirus NL63, UniProt P0C6X5)
Experiment: biochemical

| Structure (SMILES) | IC50 |
| --- | --- |
| CC(=O)Nc1ccc(C)c(C(=O)N[C@H](C)c2cccc3ccccc23)c1 [Compound 25, 5-N-Acetylamino-2-methyl-N—[(R)-1-(1-naphthyl)ethyl]benzamide] | > 100 µM |
| Cc1ccccc1C(=O)N[C@H](C)c1cccc2ccccc12 [Compound 5h, 2-Methyl-N—[(R)-1-(1-naphthyl)ethyl]benzamide] | > 100 µM |
| Cc1ccc(N)cc1C(=O)N[C@H](C)c1cccc2ccccc12 [Compound 24, 5-Amino-2-methyl-N—[(R)-1-(1-naphthyl)ethyl]benzamide] | > 100 µM |
